The campaign covered roughly 310,000 compounds. About 14,000 (4.5%) showed an effect of 50% or more. The effect is printed as a negative number. This is one part of the list.
The compounds below were run against human ether-à-go-go-related gene (hERG) potassium channel (human, UniProt Q12809) (assay: primary screen, population patch clamp on CHO cells stably expressing hERG).
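Note: peak tail current of the secondary pulse compared with the same well before compound.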

human ether-à-go-go-related gene (hERG) potassium channel, sequence (Q12809 whole entry, looked up): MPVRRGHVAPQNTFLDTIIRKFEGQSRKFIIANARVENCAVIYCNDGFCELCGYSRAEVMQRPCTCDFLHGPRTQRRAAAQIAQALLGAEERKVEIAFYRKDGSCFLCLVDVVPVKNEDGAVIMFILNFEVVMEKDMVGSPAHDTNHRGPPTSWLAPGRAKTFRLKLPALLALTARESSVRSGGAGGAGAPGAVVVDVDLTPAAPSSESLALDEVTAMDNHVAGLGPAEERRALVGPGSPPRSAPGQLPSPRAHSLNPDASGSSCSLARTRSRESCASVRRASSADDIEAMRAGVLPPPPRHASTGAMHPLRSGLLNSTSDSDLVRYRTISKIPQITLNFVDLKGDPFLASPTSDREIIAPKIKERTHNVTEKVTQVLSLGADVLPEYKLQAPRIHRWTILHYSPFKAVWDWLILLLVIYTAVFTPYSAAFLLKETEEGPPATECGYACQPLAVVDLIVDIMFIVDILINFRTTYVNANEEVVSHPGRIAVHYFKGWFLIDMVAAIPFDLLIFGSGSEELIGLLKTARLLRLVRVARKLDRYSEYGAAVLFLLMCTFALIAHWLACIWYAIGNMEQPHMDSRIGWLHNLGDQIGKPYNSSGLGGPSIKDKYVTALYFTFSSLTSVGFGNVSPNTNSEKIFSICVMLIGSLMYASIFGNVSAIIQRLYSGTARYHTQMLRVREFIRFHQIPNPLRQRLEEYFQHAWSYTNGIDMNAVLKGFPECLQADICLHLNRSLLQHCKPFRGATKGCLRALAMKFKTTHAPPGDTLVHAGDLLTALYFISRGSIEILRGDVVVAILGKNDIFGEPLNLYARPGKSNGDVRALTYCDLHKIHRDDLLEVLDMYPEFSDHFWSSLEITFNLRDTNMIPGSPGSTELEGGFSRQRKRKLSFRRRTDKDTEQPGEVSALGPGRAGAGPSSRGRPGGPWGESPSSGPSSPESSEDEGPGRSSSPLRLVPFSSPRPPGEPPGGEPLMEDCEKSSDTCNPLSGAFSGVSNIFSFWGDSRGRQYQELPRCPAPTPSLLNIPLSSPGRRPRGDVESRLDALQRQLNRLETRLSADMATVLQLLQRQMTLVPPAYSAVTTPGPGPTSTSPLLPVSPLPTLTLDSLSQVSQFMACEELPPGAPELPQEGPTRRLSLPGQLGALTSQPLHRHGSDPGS

Row | Compound | hERG current change (%, negative = inhibition) at 10uM
1 | CCOC(=O)CSc1nc2ccc(NC(=O)CSc3nnnn3Cc3ccccc3)cc2s1 | 18.6%
2 | Cc1ccc(OCc2nnc(N)s2)cc1 | 14.7%
3 | O=C(CCNC(=O)c1ccccc1)N/N=C/c1ccc([N+](=O)[O-])cc1 | -24.9%
4 | COc1cc(OC)cc(C(=O)NCCCn2ccnc2)c1 | 12.5%
5 | COc1cc(CN2C(=O)C(NC(=O)c3ccco3)(C(F)(F)F)C3=C2CC(C)(C)CC3=O)cc(OC)c1 (stereo not drawn) | -15.3%
6 | COc1cc(C(=O)NCCC(c2ccccc2)c2ccccc2)cc(OC)c1OC | 0.15%
7 | O=S(=O)(c1cccs1)N1CN(C2CCCC2)c2nc3ccccc3nc21 | -4.37%
8 | CC(=O)/C(C(=N)N1CCN(c2cccc(Cl)c2)CC1)=C(\C)O | 5.85%
9 | O=C(COC(=O)c1cc[n+]([O-])cc1)Nc1ccc(Cl)cc1C(F)(F)F | 24.9%
10 | Cc1cccc(NC(=O)C2NC(=O)CC2c2ccccc2)c1C (stereo not drawn) | 1.2%
11 | CC(NC(=O)C1CCCN1S(=O)(=O)c1ccc2c(c1)n(C)c(=O)c(=O)n2C)c1ccccc1 (stereo not drawn) | 10.1%
12 | CCOC(=O)C1(Cc2ccccc2)CCN(Cc2csc(C(C)=O)c2)CC1 | -24.2%
13 | O=C(NCC1CCCO1)c1ccc(COc2ccccc2)o1 (stereo not drawn) | -14.4%
14 | COc1ccc(C2NC(=O)NC(C)=C2C(=O)OC2CCCC(C)C2)cc1 (stereo not drawn) | 3.88%
15 | O=C(NCCOc1ccccc1)C1CCCN1C(=O)c1cccs1 (stereo not drawn) | 7.76%
16 | Cc1ccc(NC(=O)CN2CCOCC2)cc1C | 14.3%
17 | CSc1nc2ccc(N3C(=O)C4CCCCC4C3=O)cc2s1 (stereo not drawn) | -1.66%
18 | CON/C=C(\C=Nc1ccccc1)c1ncc(C(F)(F)F)cc1Cl | 5.75%
19 | COc1ccc(F)c(CN2CCN(CCc3ccccc3)C(CCO)C2)c1 (stereo not drawn) | -55.9%

Row | Compound | hERG current change (%, negative = inhibition) at 10uM
20 | CCC(C)N(C(=O)c1csnn1)C(C(=O)NCc1ccc(F)cc1)c1ccco1 (stereo not drawn) | -16.8%
21 | CCC(C)NC(=O)c1ccccc1NC(=O)CN(c1cc(C)ccc1OC)S(C)(=O)=O (stereo not drawn) | 0.336%
22 | C/C(=N\NC(=O)COc1ccc(C)cc1C(C)C)c1ccc(-n2ccnc2)cc1 | -33.4%
23 | CCOc1ccc(NC(=O)c2ccccc2CO)cc1 | 16.2%
24 | CS(=O)(=O)NCc1csc(-c2ccccc2)n1 | 10.4%
25 | COc1ccc(CCN=C(C)C2=C(O)C(c3ccccc3)OC2=O)cc1OC (stereo not drawn) | -20%
26 | NC(=O)CSc1nnc(CNc2ccc(F)cc2)n1CC1CCCO1 (stereo not drawn) | -1.77%
27 | CC(C)N(C#N)c1nc(N2CCOCC2)nc(N2CCOCC2)n1 | -14%
28 | Clc1cccc(N2CCNCC2)n1 | 12.9%
29 | COc1ccc(Nc2nc(N)nc(CSC(=S)N3CCN(c4ccccc4)CC3)n2)cc1 | 14.1%
30 | COCCN(CCOC)S(=O)(=O)c1ccc(C(=O)Nc2nc(C)c(C(C)=O)s2)cc1 | 13%
31 | CCOC(=O)Cc1csc(SCC(=O)Nc2cccc(Cl)c2)n1 | 8.11%
32 | Cc1cc(N2CCOCC2)ccc1/C=C1\NC(=O)N(CC(=O)Nc2ccc(F)cc2)C1=O | -3.6%
33 | CCCCn1c(/N=C/c2c[nH]c3ccccc23)nc2ccccc21 | -3.26%
34 | CC1(C)CC(=O)C2=C(C1)Nc1ccccc1NC2c1cccc(F)c1 (stereo not drawn) | 6.89%
35 | O=C(c1ccc(NC2=NC3CS(=O)(=O)CC3S2)cc1)N1CCN(Cc2ccccc2)CC1 (stereo not drawn) | -33.1%
36 | CNC(=O)C(=O)Nc1cc2c3c(c1)CCN3C(=O)CC2 | 28.8%
37 | NC(=O)C1CCN(c2cc(Cl)nc(N)n2)CC1 | 7.72%
38 | CCOC(=O)N1CCN(c2c(NCCCN3CCCC(C)C3)c(=O)c2=O)CC1 (stereo not drawn) | -8.23%

Row | Compound | hERG current change (%, negative = inhibition) at 10uM
39 | CCOc1ccc(CCNC(=O)CCCn2nc(C)c3c(C)n(-c4ccccc4)nc3c2=O)cc1 | -10.5%
40 | CCCC(=O)NC(=S)Nc1ccccc1F | 17%
41 | Cc1ccc(SCCC(=O)Nc2c(C)n(C)n(-c3ccccc3)c2=O)cc1 | 4.3%
42 | CCc1ccc(S(=O)(=O)Nc2cccc(C3OCCCO3)c2)cc1 | 12.6%
43 | O=C(c1noc2c1CSc1ccccc1-2)N1CCN(c2ccc(Cl)cc2)CC1 | 11.8%
44 | CCN(CC)S(=O)(=O)c1cc(NS(=O)(=O)c2cccc(C(=O)O)c2)ccc1C | 16.4%
45 | CCCCOc1ccc(CN(C)c2ncnc(N)n2)cc1 | 4.92%
46 | COc1cc2c(cc1OC)C(C(=O)N1CCN(c3ccccn3)CC1)C(c1cccs1)N(C)C2=O (stereo not drawn) | -38%
47 | CCS(=O)(=O)c1ccc(O)c(NC(=O)Nc2cccc3ccccc23)c1 | -29.1%
48 | CNC(=O)COc1ccc(Cl)c2cccnc12 | -7.98%
49 | CC(C)(C)C(=O)Nc1cc2c3c(c1)CCC(=O)N3CCC2 | 21.5%
50 | Cc1cccc(NC(=O)CNC(=O)CN2C(=O)NC3(CCCc4ccccc43)C2=O)c1C (stereo not drawn) | -12.5%
51 | Cc1ccc([N+](=O)[O-])cc1S(=O)(=O)n1ccnc1C | 1.89%
52 | Cc1ccc(NC(=O)CN(C)CC(=O)N(C)Cc2ccccc2)cc1 | -19.5%
53 | Cn1nc(-c2ccccc2)cc1NC(=O)Nc1ccccc1F | 22.4%
54 | CC1CN(c2cc(=O)n(-c3cccc(Br)c3)c(=O)[nH]2)CC(C)O1 (stereo not drawn) | -13.8%
55 | Cc1ccc(S(=O)(=O)N[C@@H](Cc2ccccc2)C(=O)CCl)cc1 | -33.3%
56 | COc1ccc(Cl)cc1NC(=O)COC(=O)c1c(-c2ccccc2)noc1C | -2.53%
57 | COc1ccc(C(=O)N/C(=C\c2ccccc2)C(=O)Nc2ccc(C(=O)O)cc2)cc1 | 9.63%

Reference: PMC4336329 (PLoS ONE, 2015)
